Source: PubChem BioAssay AID504339 (National Center for Advancing Translational Sciences (NCATS), 2011)
“And” between values parts separate entries of the source, which are not always exact repeats. Identical values can stand only once. In all, about 390,000 compounds went through this assay and about 17,000 (4.4%) were called active. The inconclusive results got no clear call from the source; some entries with a clear call stand among them for comparison. Calls come from the whole dose curve; as a rule, active = well fitted inhibition curve with a large enough effect; inconclusive = small, poorly fitted or top-dose-only effect; inactive = no such curve, though single readings can be large or run the other way. Potencies beside an inconclusive call are fits to weak or partial responses and may not hold up. Some structures have more than one record in an assay (separate samples or runs), and their calls can disagree.

molecular target: Lysine-specific demethylase 4A (Homo sapiens) (UniProt O75164); assay: qHTS Assay for Inhibitors of JMJD2A-Tudor Domain; details: AlphaScreen JMJD2A-Tudor / H3K4me3 peptide binding; activity change, negative = inhibition: at 114 µM (top of the series); note: nearly all actives have a fitted effect of over 50% in size
% is set by controls: 0 for no effect and ±100 for the full control effect; potency is the fitted concentration of half-maximal effect; tags give direction and shape of the fitted curve.

Chain of UniProt O75164 (O75164 whole entry, looked up, the tested form may be a part): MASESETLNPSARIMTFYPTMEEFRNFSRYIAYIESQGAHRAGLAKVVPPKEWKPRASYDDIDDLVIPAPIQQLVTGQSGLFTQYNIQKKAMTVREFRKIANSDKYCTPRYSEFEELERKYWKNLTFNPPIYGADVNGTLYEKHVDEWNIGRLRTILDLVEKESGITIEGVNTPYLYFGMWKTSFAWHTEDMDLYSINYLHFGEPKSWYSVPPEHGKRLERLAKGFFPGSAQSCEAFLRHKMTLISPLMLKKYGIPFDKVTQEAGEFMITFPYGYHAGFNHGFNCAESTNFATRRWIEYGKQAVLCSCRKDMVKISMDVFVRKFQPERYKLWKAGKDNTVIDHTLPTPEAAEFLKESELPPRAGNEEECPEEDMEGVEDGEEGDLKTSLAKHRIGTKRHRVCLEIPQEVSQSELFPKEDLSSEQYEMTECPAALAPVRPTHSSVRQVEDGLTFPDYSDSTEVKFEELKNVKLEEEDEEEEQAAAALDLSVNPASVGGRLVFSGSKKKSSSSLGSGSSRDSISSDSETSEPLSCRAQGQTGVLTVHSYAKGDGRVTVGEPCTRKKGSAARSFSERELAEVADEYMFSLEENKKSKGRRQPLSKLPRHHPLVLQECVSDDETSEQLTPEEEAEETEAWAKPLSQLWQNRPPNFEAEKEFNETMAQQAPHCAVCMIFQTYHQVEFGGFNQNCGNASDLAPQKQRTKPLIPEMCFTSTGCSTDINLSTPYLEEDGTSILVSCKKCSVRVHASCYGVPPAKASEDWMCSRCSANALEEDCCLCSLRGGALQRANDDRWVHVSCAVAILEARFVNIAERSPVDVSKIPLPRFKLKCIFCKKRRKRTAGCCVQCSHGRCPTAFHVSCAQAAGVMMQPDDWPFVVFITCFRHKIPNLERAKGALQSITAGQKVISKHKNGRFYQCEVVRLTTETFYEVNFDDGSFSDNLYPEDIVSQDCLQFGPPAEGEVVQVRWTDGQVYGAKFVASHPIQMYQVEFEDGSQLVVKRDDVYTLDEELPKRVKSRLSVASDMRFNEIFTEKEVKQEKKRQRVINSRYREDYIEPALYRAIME

Structure (SMILES)	Potency	activity change, negative = inhibition
O=C(C1CC1)N1CCN(c2ccc([N+](=O)[O-])cc2-n2cccc2)CC1	inconclusive: 63.1 µM [inhibitor, partial curve, poor fit]	–
COc1ccc(NC(=S)N/C(=N/CS(=O)(=O)c2ccccc2)c2ccccc2)cc1	–	inactive: -19%
Cc1sc(NC(=O)C2CCCO2)c(C#N)c1C (configuration not stated)	–	inactive: -19.9%
OCC1CCCN(C(=S)Nc2ccc(Nc3ccccc3)cc2)C1 (configuration not stated)	inconclusive: 89.1 µM [inhibitor, partial curve]	–
O=S(=O)(Nc1ccc(O)c2ncccc12)c1ccccc1F	active: 25.1 µM	–
CCOC(=O)N1CCN(c2ccc(S(=O)(=O)N3CCC(C)CC3)cc2[N+](=O)[O-])CC1	inconclusive: 44.7 µM [inhibitor, partial curve]	–
CCC(CC)N1CCN(C(=O)c2cccc(Cl)c2)CC1	active: 20 µM	–
Cc1ccc(-c2nc(Cn3c(=O)cc(-c4ccccc4)c4c(C)nn(C)c43)c(C)o2)cc1	–	inactive: -23%
COc1ccc(CNC(=O)CN(C(=O)CCC(=O)Nc2ccccn2)c2cccc(C)c2C)cc1	–	inactive: -13.4%
COc1ccccc1NS(=O)(=O)c1cc(NC(C)=O)ccc1N1CCCCC1	active: 79.4 µM	–
CC(C)(c1ccccc1)c1ccc(OCCCN2CCNCC2)cc1	active: 1.12 µM	–
CCC(OC(=O)c1ccco1)C(=O)NC1CCCC1 (configuration not stated)	–	inactive: -17.2%
COc1ccc(-c2nc(S(=O)(=O)c3ccc(C)cc3)c(N3CCCC3)o2)cc1	inconclusive: 28.2 µM [inhibitor, single point]	–
CN(C1CCCCC1)S(=O)(=O)c1ccc2c(c1)c(=O)c(C(=O)N1CCN(c3ccccc3F)CC1)cn2C	–	inactive: -22.7%
Cc1ccc(C(=O)O/N=C(\N)c2cccc([N+](=O)[O-])c2)cc1	–	inactive: -17.2%
O=C(CSc1nnc(NC(=O)c2c(F)cccc2F)s1)NCC1CCCO1 (configuration not stated)	–	inactive: -1.35%
O=C(O)CCCCCCCCc1cn(CN2C(=O)c3ccccc3C2=O)nn1	inconclusive: 28.2 µM [inhibitor, partial curve]	–
CN(CC(=O)Nc1ccc(N2CCOCC2)cc1)CC(=O)Nc1ccc(Cl)cc1[N+](=O)[O-]	inconclusive: 79.4 µM [inhibitor, partial curve]	–
COc1ccc(NC(=O)CN(C)C(=O)Cc2ccc(-c3ccccc3)cc2)cc1	active: 100 µM	–
CCOc1ccc(NC(=O)C2CCCN(S(=O)(=O)c3ccc4[nH]c(=O)ccc4c3)C2)cc1 (configuration not stated)	active: 50.1 µM	–
O=C(Cc1ccccc1)Nc1ccc(S(=O)(=O)N2CCCC2)cc1	–	inactive: -2.11%
N#CC1=C(N)C(C#N)(C#N)[C@H](c2cccnc2)[C@H]2CN(C(=O)OCc3ccccc3)CC=C12	–	inactive: -8.86%
COc1ccc(-c2nc(NC(=O)c3ccccc3)sc2-c2ccc([N+](=O)[O-])cc2)cc1	–	inactive: -31.5%
CCOC(=O)CNCCC(=O)c1ccc(Br)cc1	inconclusive: 25.1 µM [inhibitor, partial curve]	–

Structure (SMILES)	Potency	activity change, negative = inhibition
CCN(CC)CCCN1C=C2C(=O)C(C)(OC(=O)CCc3ccccc3)C(=O)C=C2C=C1c1ccc(C#N)cc1 (configuration not stated)	inconclusive: 89.1 µM [inhibitor, partial curve]	–
Cc1ccc(S(=O)(=O)N(C)C)cc1NC(=O)COC(=O)c1ccc2ccccc2n1	inconclusive: 89.1 µM [inhibitor, partial curve]	–
O=C(O)c1cnn2cc(-c3[nH]ncc3[N+](=O)[O-])cnc12	active: 22.4 µM	–
COCCn1nnnc1C(c1ccccc1)N1CCN(c2ccccc2)CC1 (configuration not stated)	inconclusive: 79.4 µM [inhibitor, partial curve]	–
CCOc1cc2c3c(c1)C1(C(=O)N3C(C)(C)C=C2C)C(C#N)=C(N)Oc2cc(O)ccc21 (configuration not stated)	inconclusive: 63.1 µM [inhibitor, partial curve]	–
COc1ccc(/C=N/n2c(COc3ccccc3)n[nH]c2=S)cc1OC	active: 14.1 µM	–
NC(=O)C1(N2CCCCC2)CCN(Cc2nc3ccccc3c(=O)[nH]2)CC1	inconclusive: 63.1 µM [inhibitor, partial curve, poor fit]	–
CC(=O)N1CCN(S(=O)(=O)c2cccc(C(=O)NC3CC3)c2)CC1	–	inactive: -11.6%
O=C(NNS(=O)(=O)c1ccccc1F)c1cccc(S(=O)(=O)N2CCOCC2)c1	active: 11.2 µM	–
CC(C)(C)OC(=O)NCCCCCNC(=O)c1nc[nH]c1C(=O)NCc1ccc(CNC(=O)OC(C)(C)C)cc1	–	inactive: -8.7%
CC1=NN(C(C#N)c2ccccc2)C(c2ccccc2)C1 (configuration not stated)	–	inactive: 5.65%
CS/C(Nc1cc(Cl)ccc1Cl)=C(/C#N)C(=O)c1ccco1	inconclusive: 79.4 µM [inhibitor, single point]	–
Cc1ccc(-c2c(C)sc(NC(=O)C3C4CCC(O4)C3C(=O)O)c2C(=O)OC(C)C)cc1 (configuration not stated)	inconclusive: 56.2 µM [inhibitor, partial curve]	–
O=C(Nc1ccc(C(=O)N2CCCC2)cc1)C1CCC1	–	inactive: -13%
O=C(Nc1c(C(=O)N2CCN(c3ccccc3)CC2)oc2ccccc12)c1ccco1	inconclusive: 25.1 µM [inhibitor, full curve, poor fit]	–
CC(=O)N1N=C(c2cccc([N+](=O)[O-])c2)OC1c1ccc(Br)cc1 (configuration not stated)	inconclusive: 44.7 µM [inhibitor, partial curve]	–
O=C(Nc1ccc(N2CCOCC2)c(S(=O)(=O)Nc2ccc(Cl)cc2)c1)c1ccc(=O)[nH]n1	inconclusive: 56.2 µM [inhibitor, partial curve]	–
O=C1NCCOC(=O)[C@H](Cc2ccc(F)cc2)CC/C=C/C[C@@H]1CC(=O)N(CCO)Cc1ccccc1	–	inactive: -10.7%
Cc1ccc(S(C)(=O)=O)cc1C(=O)OCC(=O)N1CCCC1=O	–	inactive: -9.66%
CC1CCN(C(=O)CSc2nnc3c(n2)[nH]c2ccccc23)CC1	inconclusive: 89.1 µM [inhibitor, single point]	–
CCOC(=O)N1CCN(C(=O)c2ccc3c(c2)N(Cc2ccc(F)cc2)CCS3)CC1	inconclusive: 56.2 µM [inhibitor, partial curve]	–
CC(C)C(=O)NCC(c1ccc2c(c1)OCO2)N1CCN(c2ccccc2)CC1 (configuration not stated)	–	inactive: -17.4%
Cc1nc(-c2coc3c(CN(C)C)c(O)ccc3c2=O)cs1	inconclusive: 25.1 µM [inhibitor, partial curve]	–
COc1ccc(-c2noc3c2-c2nc(C(C)C)sc2CC3)cc1	–	inactive: 10.3%

Structure (SMILES)	Potency	activity change, negative = inhibition
Cc1nc([N+](=O)[O-])cn1CC(=O)Nc1ccc([N+](=O)[O-])cc1	–	inactive: -20.5%
Cc1cc(NC(=O)CSc2nnnn2-c2ccc(C(C)C)cc2)no1	inconclusive: 28.2 µM [inhibitor, single point]	–
Oc1ccc(NC(=S)N=Nc2c(O)[nH]c3ccccc23)cc1	inconclusive: 56.2 µM [inhibitor, partial curve]	–
COc1ccc(N2Cc3cccc(C(=O)Nc4ccc(F)cc4)c3C2=O)cc1	–	inactive: -25.7%
COc1ccc(C2C(=O)c3ccccc3C2=Nc2ccc(Br)cc2)cc1 (configuration not stated)	inconclusive: 39.8 µM [inhibitor, partial curve]	–
CCN(CC(=O)Nc1ccc(NC(C)=O)cc1)C(=O)COc1ccccc1Cc1ccccc1	–	inactive: -22.8%
OC(CNCc1ccc(Cl)cc1)COc1ccccc1 (configuration not stated)	active: 20 µM	–
CC1=C(C(=O)Nc2ccccc2)C(c2cccs2)C(C#N)=C(SCC#N)N1 (configuration not stated)	inconclusive: 79.4 µM [inhibitor, partial curve]	–
O=C(NC(=S)Nc1ccc(CN2CCOCC2)cc1)c1ccc(-c2cccc(Cl)c2)o1	inconclusive: 50.1 µM [inhibitor, partial curve]	–
CCn1c(=N)c(C(=O)NC2CCCCC2)cc2c(=O)n3cc(C)ccc3nc21	–	inactive: -4.84%
O=C(Nc1ccc2oc(-c3ccncc3)nc2c1)c1ccc2c(c1)OCCO2	active: 56.2 µM	–
COc1ccc2[nH]c3c(NCCC4=CCCCC4)ncnc3c2c1	active: 50.1 µM	–
CC(=O)N1CCN(c2ccc(NC(=S)NC(=O)c3ccccc3)cc2)CC1	inconclusive: 31.6 µM [inhibitor, partial curve]	–
C/C(=N\Nc1nc2ccccc2[nH]1)c1cc2ccccc2o1	active: 44.7 µM	–
CCn1c(C(=O)N2CCCC(C(=O)N3CCN(c4cc(C)ccc4C)CC3)C2)cc2sccc21 (configuration not stated)	inconclusive: 20 µM [inhibitor, full curve]	–
CCOC(=O)Cn1c(-c2cccnc2)nc(-c2ccccc2)c1-c1ccccc1	inconclusive: 10 µM [inhibitor, single point]	–
COc1ccc(N2CCN(C(=O)[C@H](C)N3C(=O)C4CC=CCC4C3=O)CC2)cc1 (some centres not stated)	–	inactive: -5.52%
C=C1C(=O)C23C(O)C1CCC2C12CCCC(C)(COC(C)=O)C1C(O)C3(O)OC2 (configuration not stated)	inconclusive: 100 µM [inhibitor, single point]	–
CCN(CC)c1ccc(NC(=O)c2sc3nc4c(cc3c2N)CN(C)CC4)cc1	–	inactive: -34.7%
Cc1ccc(CCNC(=O)CCS(=O)(=O)c2cc3c(cc2C)NC(=O)CO3)cc1	inactive and inconclusive: 14.1 µM [inhibitor, full curve]	–
O=C(O[C@@H](C(=O)O)[C@@H](OC(=O)c1ccccc1)C(=O)O)c1ccccc1	inconclusive: 79.4 µM [inhibitor, partial curve]	–
COc1cc(OC)c(OC)cc1CNc1sc2c(c1C(=O)Nc1ccccc1OC)CCC2	inconclusive: 28.2 µM [inhibitor, partial curve]	–
O=C1C=C(c2ccc(C(=O)O)c(Cl)c2)C[C@@H](c2ccc3c(c2)OCO3)C1	active: 70.8 µM	–
COc1ccc(N2C(=O)c3ccc(C(=O)Nc4ccccc4O)cc3C2=O)cc1	–	inactive: -29.7%
